Measurements taken from US6828106 (dated 2004).

Target: the molecule itself
Test: FRET between the fluorescein- and rhodamine-labelled forms of the same peptide (homodimer)

B1: Peptide 3 (Example 4, thrombin site) (peptide)
peptide: KMKQLEDKVRELLSKNYHLENEVACLLKKLVGER
modifications: labelled with fluorescein or rhodamine by the procedure of Example 1
notes: GCN4-derived homodimeric reporter; Both labelled forms are written as one molecule
Q: Does B1 bind?
A: Result: binds
